Measurements taken from article PMC6919601, “Identification of Plasmodium dipeptidyl aminopeptidase allosteric inhibitors by high throughput screening” (PLoS ONE, 2019).
Among all 110,000 compounds or so, about 230 (0.21%) showed an effect of 50% or more. The list shows a part of the results.

What follows are molecules tested against DPAP1 (Plasmodium falciparum, UniProt Q8IIJ9) (assay: primary screen, percent inhibition; read by cleavage of a fluorogenic dipeptide substrate; higher = more effect of the substance).
Design: species or system P. falciparum D10 trophozoite lysates; single well
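Further: 30 min substrate incubation versus DMSO and 10 µM JCP410 controls.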

Sequence of DPAP1 (Q8IIJ9 whole entry, looked up): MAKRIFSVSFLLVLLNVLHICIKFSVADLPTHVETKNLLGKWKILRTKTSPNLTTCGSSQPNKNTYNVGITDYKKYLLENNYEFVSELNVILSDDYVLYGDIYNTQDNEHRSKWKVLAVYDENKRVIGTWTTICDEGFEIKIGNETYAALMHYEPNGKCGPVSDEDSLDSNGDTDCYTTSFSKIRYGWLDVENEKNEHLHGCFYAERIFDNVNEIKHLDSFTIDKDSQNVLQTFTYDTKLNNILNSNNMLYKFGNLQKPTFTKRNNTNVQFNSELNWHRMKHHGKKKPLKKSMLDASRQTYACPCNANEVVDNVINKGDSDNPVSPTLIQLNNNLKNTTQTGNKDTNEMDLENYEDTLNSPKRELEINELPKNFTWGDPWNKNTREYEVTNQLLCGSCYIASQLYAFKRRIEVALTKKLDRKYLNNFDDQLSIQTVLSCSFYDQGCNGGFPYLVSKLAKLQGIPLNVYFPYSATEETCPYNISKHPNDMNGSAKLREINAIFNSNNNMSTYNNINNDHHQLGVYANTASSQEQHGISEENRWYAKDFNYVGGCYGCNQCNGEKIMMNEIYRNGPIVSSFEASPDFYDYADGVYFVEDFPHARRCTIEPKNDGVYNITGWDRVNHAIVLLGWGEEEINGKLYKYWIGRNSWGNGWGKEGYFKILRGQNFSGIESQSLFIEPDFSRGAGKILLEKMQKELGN

SMILES | % Inhibition @ 10 uM [%]
O=C(NCCc1ccccc1)c1ccc2nc(N3CCOCC3)sc2c1 | -0.637
Cn1c(C(=O)NCC2CCCO2)cc2oc3ccccc3c21 (stereo not drawn) | 2.8
CC(=O)Nc1cc2nc3ccccc3nc2cc1NC(C)=O | 2.59
CC1CCC(NS(=O)(=O)c2ccc3[nH]c4c(c3c2)CCCC4)CC1 (stereo not drawn) | -2.5
CCOc1cc(C2C3=C(CCCC3=O)N(C)C3=C2C(=O)CCC3)ccc1OC | -3.41
Cc1ccc(C)c(OCC(=O)Nc2sc3c(c2C(N)=O)CCCC3)c1 | 3.8
CC(=O)Nc1ccc2nc(O)nc(-c3ccccc3)c2c1 | 4.57
CC(C)CC(C(=O)NCC#N)c1csc(-c2ccc(N3CCOCC3)cc2)n1 (stereo not drawn) | -1.41
CCOc1ccccc1N1CCN(C2CC(=O)N(c3ccccc3)C2=O)CC1 (stereo not drawn) | -3.26
O=C(c1ccc(Cl)cc1)N1CCN(C(=O)c2ccc(Cl)cc2)CC1 | -0.294
COC(=O)c1cc2c(=O)n3cc(C)ccc3nc2n(CCCn2ccnc2)c1=N | -0.169
COc1ccccc1N1CCN(S(C)(=O)=O)CC1 | -2.7
CCn1c(C(=O)N2CCC(C(=O)NCCCN3CCc4ccccc4C3)CC2)cc2sccc21 | 0.137
COc1ccc(C(=O)Nc2ccccc2C(=O)NC(C(=O)N2CCCCC2)C(C)C)cc1 (stereo not drawn) | 9.14
O=c1sc2ccccc2n1Cc1ccc(F)cc1 | -6.12
CC(CNC(=O)C1CCCN(c2ncnc3c2sc2cccc(F)c23)C1)c1ccccc1 (stereo not drawn) | 2.65
COc1ccc(CNC(=O)C(C)Sc2ccc(C)cc2)cc1 (stereo not drawn) | -4.15
Cc1cc(C)c(-c2c(NC3CCN(Cc4ccccc4)CC3)c(=O)c2=O)cc1C | -8.89
O=C(c1ccco1)C12CN3CN(CN(C3)C1)C2 | 4.17
O=C(Nc1cccnc1)C1CC1c1ccccc1 (stereo not drawn) | 1.57
O=C(NCCC(c1ccccc1)c1ccccc1)c1cnc2ccccn2c1=O | 3.32
N#Cc1cc2c(nc1SCCOC1CCCCO1)CCCC2 (stereo not drawn) | 2.01
CCN1C(=O)N/C(=C/c2cc(C)n(-c3ccc(N(C)C)cc3)c2C)C1=O | -7.34
Cc1ccc(OCCOCCN2CCOCC2)cc1 | -2.6
COc1ccc(N(C)C(=O)c2cccc(C(=O)N(C)c3ccc(OC)cc3)c2)cc1 | 5.05
CC(/C(O)=C(\C#N)c1nc2ccccc2[nH]1)N1C(=O)c2ccccc2C1=O (stereo not drawn) | -3.78

SMILES | % Inhibition @ 10 uM [%]
CCc1ccc(C2CC(=O)N3CN(Cc4ccccc4)CSC3=C2C#N)cc1 (stereo not drawn) | 39.2
CCN(Cc1ccccc1)C(CNS(=O)(=O)c1ccccc1)c1ccccc1 (stereo not drawn) | 1
CSc1ccc(NC(=O)CC(C)=O)cc1 | 1.48
CCOC(=O)c1nn(-c2ccc(Cl)cc2)c2cc(Cl)c([N+](=O)[O-])cc2c1=O | -0.233
COC(=O)c1sccc1NC(=O)Cn1cnc2c1c(=O)n(C)c(=O)n2C | -3.5
C=CCn1c(CCNC(=O)C2CCCCC2)nc2ccccc21 | 3.24
O=C(O)c1ccc(CN2CCC(Cc3ccccc3)CC2)cc1 | 0.708
O=C(c1ccc(CN2CCc3ccccc3C2)cc1)N1CCN(Cc2ccccc2)CC1 | -3.63
O=C(O)/C=C\C(=O)Nc1ccc(-c2ccc(Cl)cc2)cc1 | 4.44
O=C(Nc1cc(Cl)c(Cl)cc1Cl)c1ccccc1Cl | 1.91
CCC(C)NC(=O)CCC(=O)n1ncc2c(C)cccc21 (stereo not drawn) | 1.68
CCn1cc(CNC(=O)C(Sc2ccccc2)c2ccccc2)cn1 (stereo not drawn) | -1.04
Oc1cc(-c2ccc(Cl)cc2)nnc1O | -4.21
CC(C)CC(NS(=O)(=O)c1cccs1)C(=O)O (stereo not drawn) | -3.23
O=C(CC1(c2ccc(Cl)cc2)C(=O)c2ccccc2C1=O)N1CCCCC1 | 2
O=C(O)c1ccc2c(c1)C(=O)N(c1ccc(-c3nc4ccccc4[nH]3)cc1)C2=O | 2.92
Cc1cccc(/C=C2/NC(=O)N(Cc3ccccc3F)C2=O)c1 | -3.04
O=C(Nc1nsc(-c2ccccc2)n1)c1cccs1 | -2.75
Cc1nc(O)c(C(=O)/C=C/c2ccccc2)c2c1CCCC2 | -2.54
O=C(NCCN1CCOCC1)c1cc(-c2ccccc2)nc2ccccc12 | 2.08
CCS(=O)(=O)N1CCC2(CC1)OC(=O)C(C)=C2C(=O)N1CCC(N2CCCCC2)CC1 | -0.166
CCC(CC)=C(C#N)C(=O)Nc1cccc(C(F)(F)F)c1 | -4.6
COCCCNC(=O)c1cc2c(s1)-c1c(C)cccc1OC2 | -1.37
Cc1noc2ncnc(N3CCCC(C(=O)O)C3)c12 (stereo not drawn) | -5.76
CCOc1ccccc1-n1c(CN2CCN(C(=O)c3ccco3)CC2)nc2ccccc2c1=O | 3.58
CCN(CC)S(=O)(=O)c1ccc(NC(=O)c2ccccc2Cl)cc1 | 2.13

SMILES | % Inhibition @ 10 uM [%]
COc1cccc(CNC(=O)C2CCCN(S(=O)(=O)N3CCC4(CC3)OCCO4)C2)c1OC (stereo not drawn) | 1.17
Cc1noc2ncnc(N3CCCC(C(=O)NCc4ccccc4Cl)C3)c12 (stereo not drawn) | -4.32
Cc1cc(NC(=O)C2CCN(C(=O)c3cnn(-c4ccccc4)c3-n3cccc3)CC2)no1 | -1.58
O=C(O)C1Cc2ccccc2CN1C(=O)c1ccccc1 (stereo not drawn) | 0.131
CC(C)CC(C(=O)NC1(C#N)CC1)c1cccc(-c2ccc(N3CCN(CCO)CC3)cc2)c1 (stereo not drawn) | -1.41
O=C(c1ccc(CS(=O)(=O)c2ccc(Br)cc2)o1)N1CCC2(CC1)OCCO2 | 3.77
CC(C)(C)c1ccccc1OCCCCCCN1CCCCC1 | -0.414
CCCN(CCC)C(=O)c1c(C)[nH]c(C(=O)OCC)c1C | 4.88
Cc1ccnc(SCC(=O)N2c3ccccc3CCc3ccccc32)n1 | -3.39
CC(C)(O)C1=NOC(c2ccccc2)C1 (stereo not drawn) | -1.47
CS(=O)(=O)N(CC(=O)Nc1cccnc1)c1cccc(F)c1 | -2.37
CCOc1cc(C(=O)Nc2ccc(Br)cn2)cc(OCC)c1OCC | 11.8
COc1cccc(CCNC(=O)c2ccco2)c1 | 0.00178
CC(C)CNS(=O)(=O)c1ccc(CCC(=O)Nc2ccc(F)cc2)cc1 | 4.22
COc1cccc(-c2nc(-c3ccc(C(F)(F)F)cc3)no2)c1 | 2.62
O=C(Cn1nc(-c2ccccc2)ccc1=O)N1CCOCC1 | 3.79
CCOC(=O)C1=C2SCC(=O)N2C(N)=C(C(=O)OC(C)C)C1 | -1.6
COc1ccc(CCNC(=O)Cn2ncn3cccc3c2=O)cc1OC | -3.93
COc1ccc(S(=O)(=O)c2c(O)nc3cc(C(=O)O)ccc3c2O)cc1 | -3.13
O=C(c1cccc(F)c1)N1CCN(Cc2ccc(Br)cc2)CC1 | -3.76
COC(=O)C1C(c2ccc(OC)c(OC)c2)NC(c2ccc(OC)c(OC)c2)C(C(=O)OC)S1(=O)=O (stereo not drawn) | 0.035
CCCOc1cccc(-c2nc3c(=O)n(C)c(=O)n(C)c3[nH]2)c1 | -1.75
CC1CCCCC1NC(=O)C1CCN(S(C)(=O)=O)CC1 (stereo not drawn) | -6.88
CCOc1ccccc1OCc1nn2c(COc3ccccc3)nnc2s1 | 7.97
CC1CCCC(C)N1C(=O)Cc1ccccc1 (stereo not drawn) | 0.605
CCCN(CCC)S(=O)(=O)c1c(C(=O)OCC)c(C)n(C)c1C | 2.6

SMILES | % Inhibition @ 10 uM [%]
COc1ccc(-c2csc(/C(C#N)=C/Nc3ccc(C(N)=O)cc3)n2)cc1 | 3.72
COc1cccc(C2C(C#N)=C(N)OC3=C2C(=O)CCC3)c1OC (stereo not drawn) | -5.5
CC1CCC(N2CCCC(CO)C2)CC1 (stereo not drawn) | -6.85
COc1ccc(/C=C(\S)C(=O)O)cc1 | 17.9
CCOC(=O)c1cnc2c(OC)cc3c4ccccc4oc3c2c1O | 0.484
O=C1CCC(C(=O)O)C(Cc2ccccc2)C1 (stereo not drawn) | 1.26
O=c1c(/C=C\c2nc3ccccc3c(=O)n2-c2ccccc2)coc2ccccc12 | -13.3
COc1ccc(C(=O)CC(c2ccccc2)C2C(=O)CCCC2=O)cc1 (stereo not drawn) | 15.4
CC(=O)OC(C)(C#CCN1CCOCC1)C(C)C (stereo not drawn) | 6.8
O=C1N=C(N2CCOCC2)S/C1=C/c1ccc(-c2ccc(C(=O)O)c(Cl)c2)o1 | 18.3
Cc1ccc(C)c(NC(=O)c2csc3c2CCCC3)c1 | 2.4
O=c1c2c([nH]c(=S)n1Cc1ccccc1)-c1ccccc1CC21CCCC1 | -4.32
O=C(O)c1ccccc1C(=O)OCCCCOC(=O)c1ccccc1C(=O)O | -5.2
CCOc1ccccc1N(CC(=O)N1CCCC1)S(=O)(=O)c1ccc(C)cc1 | -6.75
FC(F)(F)c1cc(-c2cccs2)nc2c(-c3ccccc3)cnn12 | 3.16
O=C(c1cnn2c1NC(c1ccc(Br)cc1)CC2C(F)(F)F)N1CCCCCC1 (stereo not drawn) | 0.512
CCN(CCN(C)C)Cc1cccc(F)c1 | 2.7
O=C(NCc1ccccc1)c1cccc(C(=O)NCc2ccccc2)n1 | -0.318
CCc1ccc(OCC(=O)Nc2ccc(S(N)(=O)=O)cc2)c(Br)c1 | -6.17
CCN1CCN(C(=O)Cn2c(=O)c3cccn3c3cccnc32)CC1 | 6.91
ONc1nc(O)cc(-c2ccccc2)n1 | 1.91
CSc1ncc(C(=O)NC2CCN(Cc3ccccc3)CC2)c(C(F)(F)F)n1 | 4.32
COc1cccc(N(CC(=O)NC(C)c2ccccc2)S(=O)(=O)c2ccc(C)cc2)c1 (stereo not drawn) | -4.59
COc1ccccc1C(=O)NCc1nc(-c2ccc(Cl)cc2)no1 | 2.14
